# Test results taken from the supplement of paper PMC3334620.
# The full ranking holds about 33,000 sequences; the median of “E-score (-0.5 to 0.5)” is about -0.036, and the highest 2% start at about 0.37. This is one part of the list.
# Target: T1, Yer064c (UniProt P40041)
# T1 sequence: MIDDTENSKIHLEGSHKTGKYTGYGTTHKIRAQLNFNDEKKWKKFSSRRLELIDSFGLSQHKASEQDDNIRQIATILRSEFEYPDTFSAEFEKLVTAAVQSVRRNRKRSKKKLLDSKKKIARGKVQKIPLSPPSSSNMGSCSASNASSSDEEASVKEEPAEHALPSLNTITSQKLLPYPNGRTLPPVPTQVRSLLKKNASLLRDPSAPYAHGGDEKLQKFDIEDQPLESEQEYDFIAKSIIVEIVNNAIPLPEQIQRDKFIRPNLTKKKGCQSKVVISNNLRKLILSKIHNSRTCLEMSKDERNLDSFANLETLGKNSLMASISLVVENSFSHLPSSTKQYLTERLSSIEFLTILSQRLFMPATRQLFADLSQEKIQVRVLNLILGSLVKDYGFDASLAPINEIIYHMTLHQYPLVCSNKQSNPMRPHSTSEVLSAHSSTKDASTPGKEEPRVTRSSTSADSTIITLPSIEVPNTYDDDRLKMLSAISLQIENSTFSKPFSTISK
# Experiment: PBM E-score (8-mer binding enrichment) (E-score (-0.5 to 0.5)); higher = stronger / more preferred TF binding; most listed sequences are background and not binding sites
# Conditions: protein concentration: 200 nM; construct: GST-full length
# Description: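 Universal 'all 10-mer' protein binding microarrays (Agilent AMADID 015681) probed with GST-tagged S. cerevisiae TFs (full-length or DBD) made by in vitro transcription/translation (PURExpress), about 100-200 nM. Bound TF was detected with fluorescent anti-GST. Each ungapped 8-mer (which stands for itself and its reverse complement) is scored by the PBM enrichment score (E-score), a modified Wilcoxon-Mann-Whitney statistic from -0.5 to +0.5, computed with the Universal PBM Analysis Suite. Scale: above 0.35 generally sequence-specific binding.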
row,Sequence,PBM E-score
1,CAGGAAGC,-0.0442
2,AGATGTCC,-0.302
3,AAGCTGGG,-0.144
4,AGTGCCAC,-0.368
5,AAAACCGG,-0.021
6,GAGTAAAA,0.112
7,ACTAAATG,0.256
8,TTGGTAAA,0.118
9,GAATCGCC,0.207
10,AGGCTTCC,-0.305
11,CCCGTGAA,0.0268
12,AGGAGGCA,-0.251
13,CGGATGTA,-0.194
14,TGATCTAA,0.18
15,GTAGAAAA,-0.0593
16,AGCCGATA,-0.12
17,GGTCTGAA,-0.136
18,CTTGACTC,0.463
19,ATGAGGCC,-0.309
20,ACTTACGG,0.0488
21,ACAGACGG,-0.0171
22,AAATGGCC,-0.343

row,Sequence,PBM E-score
1,GCTGTGGA,-0.0873
2,TGCGTTAA,0.0664
3,CAAAGGGA,0.131
4,AGCACGTC,-0.179
5,AGTACCAA,0.104
6,CCGGGCCC,-0.315
7,ACGGCGGA,-0.0257
8,CACGGTTA,0.0807
9,CAAATTCC,-0.0634
10,CCATAGAA,-0.119
11,GGAATCGA,-0.0545
12,AACATCAC,-0.111
13,GTATCACA,0.0755
14,TTACAGAA,-0.0215
15,GAACAAAC,-0.148
16,AGTCGTGG,0.373
17,ATACACAC,0.13
18,ACAGTATG,0.0881
19,CACTTCCA,-0.0798
20,AGCGCCTC,-0.254
21,AGTCCACA,0.207
22,CATATAAC,0.021

row,Sequence,PBM E-score
1,ACCCCACT,-0.13
2,CGGGTTCA,-0.0939
3,GGTCTTCA,-0.144
4,CAAGCCGA,0.102
5,AAATGTAT,0.0293
6,AAGCACAG,0.0417
7,CAGATGTA,-0.146
8,AACATTAT,-0.0519
9,GGGGATAA,-0.07
10,AACAGTCG,0.209
11,AAAGCAAC,-0.142
12,TCTAGCCA,0.0953
13,ACTCCGGG,0.164
14,CCCTTCGC,-0.257
15,GCCAAGTA,-0.117
16,CGCTACTA,0.0698
17,ATTCGTGA,0.283
18,GCGCTGTA,-0.0554
19,GCACGAAA,0.0098
20,AACACCCA,-0.0581
21,ACATTGCG,-0.133
22,ATCATATC,0.231

row,Sequence,PBM E-score
1,GACAATGA,0.11
2,GCAGCCGA,0.0273
3,GAGTGCCA,-0.283
4,ATAGAGAT,0.111
5,CAGGACAC,-0.0355
6,TATAATCA,0.387
7,ATCAACGA,0.18
8,AAATATAT,0.0609
9,AACAACCG,-0.036
10,CGCAAAAA,0.101
11,CAAGAATC,0.234
12,TGCTGACA,0.0187
13,CCCTGCGG,-0.169
14,AACACTCT,-0.0759
15,AAAAGTGG,-0.0585
16,ACAATGTC,-0.044
17,AGTACTAT,0.111
18,CCAAATGC,-0.232
19,ACTATGCC,0.0767
20,ATTACTCA,0.329
